These are yes or no findings as the source states them, for the method shown. In cells and extracts the contact can be indirect. Some binding calls cover weakened binding; strength is not graded here. For some assays here: Where a sequence is shown, tags or fusion partners need not be part of it.

Test [1] deals with T1, RAR1, LCI positive control construct (UniProt Q9SE33).
T1 sequence: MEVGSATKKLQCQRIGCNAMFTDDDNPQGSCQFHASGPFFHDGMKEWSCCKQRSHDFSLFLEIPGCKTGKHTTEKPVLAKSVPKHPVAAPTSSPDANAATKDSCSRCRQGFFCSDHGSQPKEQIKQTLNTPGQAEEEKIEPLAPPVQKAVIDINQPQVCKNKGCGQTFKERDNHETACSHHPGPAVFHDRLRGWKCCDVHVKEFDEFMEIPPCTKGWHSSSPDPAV
The experiment in a line: split reporter; firefly luciferase complementation imaging (LCI): nLUC and cLUC fusions co-expressed by agroinfiltration (with p19) in N. benthamiana leaves for 2 d; 1 mM luciferin sprayed, LUC images taken.

The target in test [2] is T2, QQT1–nLUC (Arabidopsis thaliana) (UniProt Q56XY2).
T2 sequence: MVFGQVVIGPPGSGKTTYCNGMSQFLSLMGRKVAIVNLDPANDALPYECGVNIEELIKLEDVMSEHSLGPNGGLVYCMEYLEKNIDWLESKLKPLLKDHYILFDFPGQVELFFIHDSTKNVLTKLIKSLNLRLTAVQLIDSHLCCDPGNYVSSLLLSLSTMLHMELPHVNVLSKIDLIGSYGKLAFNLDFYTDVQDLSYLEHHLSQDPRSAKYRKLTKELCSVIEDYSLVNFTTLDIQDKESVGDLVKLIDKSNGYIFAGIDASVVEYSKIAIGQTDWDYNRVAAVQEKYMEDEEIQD
The description is as above.

B1: SGT1b, LCI positive control construct (protein, UniProt Q9SUT5 1-358)
chain: MAKELAEKAKEAFLDDDFDVAVDLYSKAIDLDPNCAAFFADRAQANIKIDNFTEAVVDANKAIELEPTLAKAYLRKGTACMKLEEYSTAKAALEKGASVAPNEPKFKKMIDECDLRIAEEEKDLVQPMPPSLPSSSTTPLATEADAPPVPIPAAPAKPMFRHEFYQKPEEAVVTIFAKKVPKENVTVEFGEQILSVVIDVAGEEAYHLQPRLFGKIIPEKCRFEVLSTKVEIRLAKAEIITWASLEYGKGQSVLPKPNVSSALSQRPVYPSSKPAKDWDKLEAEVKKQEKDEKLDGDAAMNKFFSDIYSSADEDMRRAMNKSFAESNGTVLSTNWKEVGTKKVESTPPDGMELKKWEY
For B1, the binding entry in test [1] is given as “binds”.

B2: microtubule-associated protein 65-7 (MAP65-7)–cLUC (protein, UniProt Q8L836 1-603)
chain: MLEIESPTSLCFRTNTTCNALLRELQKIWVDIGESDAEKDRMLMELEKECLEIYRRKVDEAANSKAQLHQSLVSIEAEIASLLAALGVFNSHSPMKAKEGSKSLKEKLAAVRPMLEDLRLQKDERMKQFVDIKAQIEKMSGEISGYSDQLNKTMVGSLALDEQDLTLRKLNEYQTHLRSLQKEKSDRLNKVLDYVNEVHTLCGVLGVDFGQTVSEVHPSLHRTDHEQSTNISDDTLDGLHHMIHKLKTERSVRFQKLKDVAGSLFELWNLMDTSQEERTKFASVSYVVRSSESDITEPNILSSETIEQVSAEVDCFNKLKASRMKELVMKRRTELENLCRLAHIEADTSTSLEKSTALIDSGLVDPSELLTNIELHINKIKEEAHSRKEIIDRIDRWLSACEEENWLEEYNQDETRYSAGRGGHVNLKHAERARITVNKIPSMVDNLIKKTLLWEDETRKSFLYDGVRLVSILEDYKLTRKQQEEEKRRYRDQKKMQDLLIKRRESIYGSKPSPRRSNSVRKTNGYNGDASVPPTPRRNSAGATNNDIMTTPRSYSSHRQNGYFKEVRRLSTAPLNFVAIPKEDSVSTYTSVCGSEPDSPLYN
As for B2, the binding result in test [2] is “binds”.

B3: GRP7 protein, LCI construct (protein, UniProt Q03250 1-176)
chain: MASGDVEYRCFVGGLAWATDDRALETAFAQYGDVIDSKIINDRETGRSRGFGFVTFKDEKAMKDAIEGMNGQDLDGRSITVNEAQSRGSGGGGGHRGGGGGGYRSGGGGGYSGGGGSYGGGGGRREGGGGYSGGGGGYSSRGGGGGSYGGGRREGGGGYGGGEGGGYGGSGGGGGW
Turning to B3, in test [2], the binding entry was “no binding”.

B4: QQT1–nLUC (protein, UniProt Q56XY2 1-298)
chain: MVFGQVVIGPPGSGKTTYCNGMSQFLSLMGRKVAIVNLDPANDALPYECGVNIEELIKLEDVMSEHSLGPNGGLVYCMEYLEKNIDWLESKLKPLLKDHYILFDFPGQVELFFIHDSTKNVLTKLIKSLNLRLTAVQLIDSHLCCDPGNYVSSLLLSLSTMLHMELPHVNVLSKIDLIGSYGKLAFNLDFYTDVQDLSYLEHHLSQDPRSAKYRKLTKELCSVIEDYSLVNFTTLDIQDKESVGDLVKLIDKSNGYIFAGIDASVVEYSKIAIGQTDWDYNRVAAVQEKYMEDEEIQD
With B4, in test [2], the binding entry is recorded as “no binding”.

B5: translocon at the outer envelope membrane of chloroplasts 33 (TOC33)–cLUC (protein, UniProt O23680 1-297)
chain: MGSLVREWVGFQQFPAATQEKLIEFFGKLKQKDMNSMTVLVLGKGGVGKSSTVNSLIGEQVVRVSPFQAEGLRPVMVSRTMGGFTINIIDTPGLVEAGYVNHQALELIKGFLVNRTIDVLLYVDRLDVYRVDELDKQVVIAITQTFGKEIWCKTLLVLTHAQFSPPDELSYETFSSKRSDSLLKTIRAGSKMRKQEFEDSAIAVVYAENSGRCSKNDKDEKALPNGEAWIPNLVKAITDVATNQRKAIHVDKKMVDGSYSDDKGKKLIPLIIGAQYLIVKMIQGAIRNDIKTSGKPL
With B5, the binding result in test [2] is “binds”.

These data come from publication PMC5853960.
